Biological target: Homo sapiens ATP synthase subunit c (HsATPc) prey for MYTH (NubG-HA) (UniProt P05496)
Assay: MYTH (membrane yeast two-hybrid) quantitative β-Gal activity assay
Details: yeast strain NMY51; n = 3; 6 colonies for each independent experiment; parent: est. 140; read off a plot

Q: Which response does the source give for “Homo sapiens MCU (HsMCU) bait for MYTH (Cub-LexA-VP16) (from UniProt Q8NE86) TMH1 replaced with WALP ([…])” here?
A: Its response is 25 units.

Source: paper PMC7078472
